Data from the supplement of paper PMC4967469.
By IC50 is meant the dose at which the fit gives 50% viability; where the fit passes the top or lowest dose, that dose stands as a limit. For AUC the same curve is integrated over the 256-fold range of doses and scaled to a fraction: 1 means no effect, lower means more sensitive. For some assays here: An inferred top dose was calculated from the reported fits. For some assays here: Drugs with an entry number were screened twice under separate entries, and the two screens often disagree.

Columns and labels:
Assay in all cases: Viability of human cancer cell lines after 72 h of drug (GDSC screen)
SNX-2112 = compound: CC1(C)CC(=O)c2c(C(F)(F)F)nn(-c3ccc(C(N)=O)c(N[C@H]4CC[C@H](O)CC4)c3)c2C1 [SNX-2112]; details: top dose 2.56 µM
Method: (§1)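 Human cancer cell lines in 384-well plates, medium with 10% serum, drug for 72 h over a 256-fold dose range (nine 2-fold or five 4-fold steps up to the top dose). Adherent lines were fixed and stained with the nucleic acid dye Syto60, suspension lines read with resazurin; signal relative to control wells, capped at 0 and 100%. One two-parameter sigmoid per drug and line, fitted in a mixed model over all curves with the slope shared within a line.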

XMD13-2 = compound: O=C(NC1CC1)c1cccc(-c2ccc3c(NC(=O)C4CC4)n[nH]c3c2)c1 [XMD13-2]; details: top dose 10.24 µM; top dose inferred
Method: as §1

PF-562271 = compound: CN(c1ncccc1CNc1nc(Nc2ccc3c(c2)CC(=O)N3)ncc1C(F)(F)F)S(C)(=O)=O [PF-562271]; details: top dose 2.56 µM; top dose inferred
Method: as §1

Afatinib = compound: CN(C)C/C=C/C(=O)Nc1cc2c(Nc3ccc(F)c(Cl)c3)ncnc2cc1O[C@H]1CCOC1 [Afatinib]
Method: as §1

[1] = top dose 10 µM, screen: GDSC drug entry 1377, top dose inferred
[2] = top dose 0.5 µM, screen: GDSC drug entry 1032

Cell Line | AUC (SNX-2112) | IC50 (SNX-2112) [nM] | AUC (XMD13-2) | IC50 (XMD13-2) [nM] | AUC (PF-562271) | IC50 (PF-562271) [nM] | AUC (Afatinib; [1]) | IC50 (Afatinib; [1]) [nM] | AUC (Afatinib; [2]) | IC50 (Afatinib; [2]) [nM]
BICR31 (head and neck, adherent) | 0.533 | 197 | 0.946 | > 10200 | 0.913 | > 2560 | – | – | – | –
NCI-H2170 (lung squamous cell carcinoma, adherent) | 0.939 | > 2560 | 0.985 | > 10200 | 0.934 | > 2560 | – | – | – | –
UACC-812 (breast, adherent) | 0.991 | > 2560 | 0.989 | > 10200 | 0.989 | > 2560 | – | – | – | –
COR-L32 (small cell lung carcinoma, suspension) | – | – | – | – | – | – | 0.903 | > 10000 | – | –
HCC202 (breast, adherent) | 0.63 | 424 | – | – | – | – | 0.612 | 1440 | 0.797 | 354
SU-DHL-1 (anaplastic large cell lymphoma, suspension) | 0.32 | 58.8 | 0.732 | 2330 | 0.997 | > 2560 | – | – | – | –
Hs940-T (melanoma, adherent) | 0.984 | > 2560 | 0.91 | > 10200 | – | – | 0.978 | > 10000 | – | –
THP-1 (acute myeloid leukaemia, suspension) | 0.287 | 43 | 0.925 | > 10200 | 0.971 | > 2560 | – | – | – | –
KP-N-YS (neuroblastoma, adherent) | 0.448 | 113 | 0.629 | 1530 | 0.933 | > 2560 | – | – | – | –
HCC1428 (breast, adherent) | 0.96 | > 2560 | 0.985 | > 10200 | – | – | 0.986 | > 10000 | 0.984 | > 500
NCI-H2066 (small cell lung carcinoma, adherent) | – | – | – | – | – | – | 0.976 | > 10000 | – | –
NCI-H2196 (small cell lung carcinoma, adherent) | 0.487 | 147 | 0.937 | > 10200 | 0.977 | > 2560 | – | – | – | –
HCC1187 (breast, suspension) | – | – | 0.653 | 1660 | 0.951 | > 2560 | 0.987 | > 10000 | 0.959 | > 500
SNU-475 (liver, adherent) | 0.624 | 336 | 0.957 | > 10200 | 0.991 | > 2560 | – | – | – | –
CHP-134 (neuroblastoma, suspension) | 0.844 | > 2560 | 0.864 | > 10200 | – | – | – | – | – | –
NCI-H1793 (lung adenocarcinoma, adherent) | 0.98 | > 2560 | 0.982 | > 10200 | – | – | 0.922 | > 10000 | – | –
SK-OV-3 (ovary, adherent) | 0.469 | 129 | 0.901 | > 10200 | 0.887 | > 2560 | – | – | – | –
KYSE-180 (oesophagus, adherent) | 0.382 | 77.1 | 0.938 | > 10200 | 0.832 | 1540 | – | – | – | –
NK-92MI (lymphoid neoplasm, suspension) | – | – | – | – | 0.887 | 2510 | – | – | – | –

Cell Line | AUC (SNX-2112) | IC50 (SNX-2112) [nM] | AUC (XMD13-2) | IC50 (XMD13-2) [nM] | AUC (PF-562271) | IC50 (PF-562271) [nM] | AUC (Afatinib; [1]) | IC50 (Afatinib; [1]) [nM] | AUC (Afatinib; [2]) | IC50 (Afatinib; [2]) [nM]
H2810 (mesothelioma, adherent) | – | – | – | – | – | – | 0.984 | > 10000 | – | –
HCT-116 (large intestine, adherent) | 0.341 | 59.5 | 0.774 | 3810 | 0.835 | 1560 | – | – | – | –
SNU-175 (large intestine, suspension) | 0.285 | 41.2 | 0.749 | 3150 | – | – | – | – | – | –
NCI-H2122 (lung adenocarcinoma, adherent) | 0.816 | 1300 | 0.975 | > 10200 | 0.875 | 2240 | – | – | – | –
NCI-H1915 (large cell lung carcinoma, adherent) | 0.421 | 96.8 | 0.927 | > 10200 | 0.955 | > 2560 | – | – | – | –
Jurkat (T-cell leukaemia, suspension) | – | – | – | – | – | – | 0.972 | > 10000 | 0.993 | > 500
BT-549 (breast, adherent) | – | – | – | – | – | – | 0.933 | > 10000 | 0.977 | > 500
Caov-3 (ovary, adherent) | 0.441 | 113 | 0.926 | > 10200 | 0.983 | > 2560 | – | – | – | –
GA-10 (Burkitt lymphoma, suspension) | – | – | – | – | 0.831 | 1290 | 0.977 | > 10000 | 0.989 | > 500
BC-3 (B-cell lymphoma, suspension) | 0.288 | 43.6 | 0.872 | 8000 | 0.95 | > 2560 | – | – | – | –
COR-L311 (small cell lung carcinoma, suspension) | 0.65 | 430 | 0.899 | > 10200 | – | – | – | – | – | –
NCI-H460 (large cell lung carcinoma, adherent) | 0.49 | 151 | 0.99 | > 10200 | 0.881 | 2250 | – | – | – | –
BT-474 (breast, adherent) | 0.544 | 214 | 0.891 | > 10200 | 0.985 | > 2560 | – | – | – | –
NCI-H2228 (lung adenocarcinoma, adherent) | 0.813 | 2410 | 0.953 | > 10200 | 0.951 | > 2560 | – | – | – | –
SCC-3 (B-cell lymphoma, suspension) | 0.496 | 157 | 0.839 | 4390 | 0.981 | > 2560 | – | – | – | –
IM-95 (stomach, adherent) | 0.463 | 126 | 0.877 | > 10200 | 0.83 | 1760 | – | – | – | –
SW1116 (large intestine, adherent) | 0.985 | > 2560 | 0.983 | > 10200 | – | – | 0.764 | 4920 | – | –
HCE-4 (oesophagus, adherent) | 0.985 | > 2560 | 0.992 | > 10200 | 0.984 | > 2560 | – | – | – | –
